Measurements reported in paper PMC4336329 (PLoS ONE, 2015).
The campaign covered roughly 310,000 compounds. About 14,000 (4.5%) showed an effect of 50% or more. Effects have a minus sign here. This is one part of the list.

molecular target: human ether-à-go-go-related gene (hERG) potassium channel (human, UniProt Q12809); assay: primary screen, population patch clamp on CHO cells stably expressing hERG
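Further: peak tail current of the secondary pulse compared with the same well before compound.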

Sequence of human ether-à-go-go-related gene (hERG) potassium channel (Q12809 whole entry, looked up): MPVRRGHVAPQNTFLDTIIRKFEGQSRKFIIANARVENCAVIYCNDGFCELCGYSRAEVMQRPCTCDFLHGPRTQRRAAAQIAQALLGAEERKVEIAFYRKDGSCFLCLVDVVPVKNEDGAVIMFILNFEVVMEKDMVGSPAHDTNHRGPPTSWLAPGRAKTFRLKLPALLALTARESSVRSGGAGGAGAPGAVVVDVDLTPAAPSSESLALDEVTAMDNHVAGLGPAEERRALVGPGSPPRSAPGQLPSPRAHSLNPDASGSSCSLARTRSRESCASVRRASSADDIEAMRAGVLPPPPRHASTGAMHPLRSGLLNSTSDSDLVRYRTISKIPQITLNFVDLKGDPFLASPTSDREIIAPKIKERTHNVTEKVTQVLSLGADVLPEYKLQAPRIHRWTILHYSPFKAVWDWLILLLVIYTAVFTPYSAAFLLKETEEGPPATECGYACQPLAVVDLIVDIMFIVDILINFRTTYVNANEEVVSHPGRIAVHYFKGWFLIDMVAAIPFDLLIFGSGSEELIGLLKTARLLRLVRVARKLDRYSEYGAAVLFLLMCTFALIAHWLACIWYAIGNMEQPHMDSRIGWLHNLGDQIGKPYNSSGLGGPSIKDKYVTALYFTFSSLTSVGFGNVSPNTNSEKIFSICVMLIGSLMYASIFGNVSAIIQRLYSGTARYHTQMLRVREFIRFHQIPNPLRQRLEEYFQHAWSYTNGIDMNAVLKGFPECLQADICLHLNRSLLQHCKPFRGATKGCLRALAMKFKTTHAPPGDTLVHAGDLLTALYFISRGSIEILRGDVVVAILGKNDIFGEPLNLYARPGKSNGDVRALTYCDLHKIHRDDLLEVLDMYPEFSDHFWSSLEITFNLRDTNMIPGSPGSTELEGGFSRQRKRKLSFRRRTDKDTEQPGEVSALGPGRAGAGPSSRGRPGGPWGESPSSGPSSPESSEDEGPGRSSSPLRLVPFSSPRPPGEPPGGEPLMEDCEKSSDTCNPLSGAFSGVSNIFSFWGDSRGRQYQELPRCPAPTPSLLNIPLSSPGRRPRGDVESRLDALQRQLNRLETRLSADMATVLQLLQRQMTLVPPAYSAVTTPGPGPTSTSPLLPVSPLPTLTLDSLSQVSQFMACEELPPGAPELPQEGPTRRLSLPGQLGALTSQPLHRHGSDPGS

| SMILES | hERG current change (%, negative = inhibition) at 10uM [%] |
| --- | --- |
| NS(=O)(=O)c1ccc(NC(=O)c2cc(=O)c3ccccc3o2)cc1 | 28.7 |
| Cc1c(NC(=O)c2ccc(NS(=O)(=O)c3ccccc3)cc2)c(=O)n(-c2ccccc2)n1C | -25.6 |
| Cc1cc(C)c[n+](-c2[nH]c(=O)sc2/C=N/N=C(\[O-])c2cccnc2)c1 | 12.6 |
| CCOC(=O)C1CCN(C(=O)C2CCN(S(=O)(=O)c3ccc4ccccc4c3)CC2)CC1 | -6.4 |
| Cc1cc(N(C)NC(=S)Nc2ccccc2)nc(C)n1 | 17.7 |
| CCCCN(C)C(=O)c1cn(C)c2ccc(S(=O)(=O)N(C)C)cc2c1=O | 8.34 |
| C/C(=N\NC(=O)C1CCCC1)c1ccc(C(C)C)cc1 | -39.9 |
| CC(=O)Nc1ccc(C(=O)OCc2ccccc2Br)cc1 | 6.08 |
| CC(NCCc1ccc(O)cc1)C(O)c1ccc(O)cc1.Cl (stereo not shown) | 5.08 |
| CN1C(C(=O)NCC2CC2)CC2Cn3c(nc4ccccc43)C21 (stereo not shown) | 15.5 |
| Cc1ccc(NC(=O)c2ccc([N+](=O)[O-])cc2Cl)nc1 | -7.36 |
| CCC(C)N(C(=O)CSc1nnc(NC(C)C)s1)C1CCS(=O)(=O)C1 (stereo not shown) | -5.38 |
| CCNC(=S)N1CCN(CCN=CC2=C(O)CC(c3ccco3)CC2=O)CC1 (stereo not shown) | 0.166 |
| O=C(Nc1cccc(OCC(=O)N2CCOCC2)c1)c1cccc(Cl)c1 | 2.04 |
| Cc1nnc2n(-c3ccccc3)c(=O)c3c4c(sc3n12)CC(C)CC4 (stereo not shown) | -17.9 |
| O=C(CCC1CCCC1)N1CCN(S(=O)(=O)Cc2ccccc2)CC1 | -1.81 |
| CCCCOc1cccc(C(=O)NC(=S)Nc2ccc(Cl)c(C(=O)O)c2)c1 | 28.9 |
| Cc1ccc2c(c1)nnn2C1CCN(C(=O)Nc2ccccc2C)CC1 | -22.6 |
| CCOC(=O)N1CCC(N2C(=O)c3ccc(C(=O)Nc4ccc(OC)c(OC)c4)cc3C2=O)CC1 | 23.2 |
| COc1ccc(/C=C/c2cc(C(F)(F)F)on2)cc1 | 16.4 |
| O=C(NCc1ccco1)c1ccc(Cn2c(=O)c3ccccc3n(Cc3ccc(Cl)cc3)c2=O)cc1 | 8.16 |
| S=C(NCc1ccncc1)NC1CCCC1 | 17.3 |

| SMILES | hERG current change (%, negative = inhibition) at 10uM [%] |
| --- | --- |
| COc1ccc(NS(=O)(=O)c2ccc(Cl)c(NC(=O)c3cccnc3Cl)c2)cc1 | -10.5 |
| CCOc1ccccc1CN1CCNC(=O)C1CC(=O)N(C)Cc1nonc1C (stereo not shown) | 8.59 |
| CC(=O)NCCC(=O)Nc1cc(S(=O)(=O)N2CCCCC2)ccc1Oc1cccc(C)c1 | -68 |
| COC(=O)CCN1CCC(C(N)=O)CC1 | 4.35 |
| CCCCC1=CC2=CC(=O)C(C)(OC(=O)C3CCCC3)C(=O)C2=CO1 (stereo not shown) | 4.34 |
| O=C(CCCOc1ccccc1)Nc1cccc([N+](=O)[O-])c1 | 5.78 |
| CN(Cc1ccccc1)c1oc(-c2ccco2)nc1C#N | -29.4 |
| CCOc1cc(S(=O)(=O)n2nc(C)cc2C)ccc1F | -16.4 |
| CC(C)N1CCN(Cc2ccc(C#CCCO)cc2)CC1CCO (stereo not shown) | -5.27 |
| Cl.O=C(O)CCCCCNc1ncnc2ccc(Br)cc12 | 8.47 |
| COc1ccc(CN(C2CCCCC2C)S(=O)(=O)c2ccc(S(=O)(=O)N(C)C)cc2)cc1OC (stereo not shown) | -7.82 |
| O=C(NCc1ccc2[nH]c3c(c2c1)CCCC3)c1ccc(S(=O)(=O)N2CCOCC2)cc1 | 0.651 |
| O=C(CCSc1ccccc1)Nc1nccs1 | 4.16 |
| O=C(CNCCO)N1N=C(c2cccs2)CC1c1cccs1 (stereo not shown) | 8.28 |
| CC1(C)NC(=O)N(CC(=O)OCC(=O)NC(=O)c2ccccc2)C1=O | 4.15 |
| c1ccc2oc(NC3=NCN(C4CCCCC4)CN3)nc2c1 | 13.4 |
| CCN1CCN(c2nc3c(C)cccn3c(=O)c2C=C(C#N)C#N)CC1 | -15.2 |
| CNC(=S)NC12CC3CC(CC(C3)C1)C2 | 0.999 |
| CCCCNC(=O)CN1C(=O)NC(Cc2ccccc2)(Cc2ccccc2)C1=O | 2.57 |
| Cc1c(NC(=S)NC(=O)CSc2ccc(Cl)cc2)cccc1C(=O)O | 2.82 |
| Cc1ccccc1CN1C[C@@H]2C[C@@H](c3cn[nH]c3-c3ccc(F)cc3)N3CCC[C@@]23C1=O | -52.2 |
| CNC(=O)c1cc2c(-c3ccccc3)nn(C)c2s1 | 1.75 |

| SMILES | hERG current change (%, negative = inhibition) at 10uM [%] |
| --- | --- |
| CSCCC(NC(=O)COc1ccccc1)C(=O)N(C)CC(=O)Nc1ccc(Cl)cc1 (stereo not shown) | -41.3 |
| COc1ccc(-c2noc(N3CCC(C(=O)N(C)c4ccccc4)CC3)n2)cc1 | -36.1 |
| CC1=NN(C(=O)Cc2ccc([N+](=O)[O-])cc2)C(O)(C(F)(F)C(F)(F)F)C1 (stereo not shown) | -12.4 |
| O=C1C=C(c2cc3ccccc3s2)CCC1 | -6.45 |
| CCN(CC)CCCn1c(C)cc2c(c1=O)C(c1cc(OC)c(OC)cc1OC)C(C#N)=C(N)O2 (stereo not shown) | 7.99 |
| Cc1cccc(C)c1NC(=O)CN(C)C(=O)c1ccc(-n2cncn2)c([N+](=O)[O-])c1 | -6.43 |
| CCC(C)[C@H](NC(=O)N1CCCC1)C(=O)O (stereo partly shown) | 12.4 |
| Cc1cccc(CSc2nc3nc(C)cc(C)n3n2)c1 | -27.9 |
| O=C(c1ccc(CS(=O)Cc2ccc(Cl)cc2)o1)N1CCN(c2cccc(Cl)c2)CC1 (stereo not shown) | -52.7 |
| CC(Sc1ncc(C(F)(F)F)cc1Cl)C(=O)NCC1CCCO1 (stereo not shown) | -13.7 |
| Cc1cc(C(c2nnnn2Cc2ccccc2)N2CCOCC2)c(C)n1-c1ccc2c(c1)OCO2 (stereo not shown) | -32.1 |
| CCN(CC)c1ccc(/C=N/NC(=O)c2cnccn2)c(O)c1 | 0.584 |
| Nc1ccc(S(=O)(=O)[N-]c2cnc3ccccc3n2)cc1.[Na+] | -6.28 |
| COc1ccc(-c2nc3nc(C)cc(C)n3n2)cc1 | -8.05 |
| COc1cccc(NC(=S)NCc2cccs2)c1 | -3.78 |
| O=C(NCCc1nc2ccccc2[nH]1)C1CCC(=O)N(CCc2cccc(F)c2)C1 (stereo not shown) | 7.55 |
| COc1ccc(OC)c(S(=O)(=O)NC(C)(C)C)c1 | 21.5 |
| COc1ccc(CC(=O)Nc2cccc(S(=O)(=O)N3CCOCC3)c2)cc1OC | 6.61 |
| Cc1ccc(C)c(OCC(=O)Nc2ccc(S(=O)(=O)N3CCN(C)CC3)cc2)c1 | -1.44 |
| CCOc1ccc(CCNC(=O)C2CCCN(c3ncnc4c3nc3n4CCCCC3)C2)cc1 (stereo not shown) | -58.6 |
| Cn1cnc2c1c(=O)n(Cc1cccc(F)c1)c(=O)n2C | 12 |
| CSc1ccccc1C(=O)Nc1cccc([N+](=O)[O-])c1 | -12 |

| SMILES | hERG current change (%, negative = inhibition) at 10uM [%] |
| --- | --- |
| Cc1csc(SCCn2c(N3CCCC3)nc3c2c(=O)[nH]c(=O)n3C)n1 | 2.18 |
| CCOc1ccc(OCCC(=O)NNC(=O)c2cc(OC)c(OC)c(OC)c2)cc1 | -46.1 |
| COc1cc(C)c(Br)cc1S(=O)(=O)NCc1ccncc1 | 7.9 |
| CC1CCCN(C(=O)Cn2nnc(-c3ccc(S(C)(=O)=O)cc3)n2)C1 (stereo not shown) | 17.7 |
| C=CCOc1cccc(C2/C(=C(\O)c3ccc4c(c3)OCCO4)C(=O)C(=O)N2Cc2cccnc2)c1 (stereo not shown) | 17.7 |
| CC(CN1C(C)CCCC1C)OC(=O)c1ccccc1F.Cl (stereo not shown) | -9.23 |
| COC(=O)c1ccc(C(=O)OC)c(NC(=S)N2CCN(c3ccc(F)cc3)CC2)c1 | -24 |
| C[C@H]1CC[C@H]2C(=O)N3[C@H](c4ccccc4Br)[C@@H](C)CC[C@H]3C(=O)N2[C@@H]1c1ccccc1Br | 10.4 |
| Cc1cc(C(=O)N/N=C/c2ccc(Br)o2)n[nH]1 | 3.87 |
| O=C(CCNC(=O)C1CCN(S(=O)(=O)c2ccccc2)CC1)NCCc1ccc(Cl)cc1 | -4.76 |
| CC(=O)c1ccc(-n2c(CCC(=O)O)ccc2-c2ccc(Br)cc2)cc1 | 11.3 |
| Cc1ccc(S(=O)(=O)NC(=O)COc2ccccc2)cc1 | 16.1 |
| COc1ccc(OCC(=O)Nc2ccc(NC(=O)c3cccs3)cc2)cc1 | 13.9 |
| Cc1ccc(NS(=O)(=O)c2cc(C(=O)NCc3cccnc3)ccc2C)cc1 | -28.3 |
| NCCNC(=O)c1c(NC(=O)c2ccccc2)sc2c1CCCC2 | 15.4 |
| Cc1nnc(NC(=O)c2ccccc2Br)s1 | -1.65 |
| COc1ccc(Cc2nnc(SCC(=O)N(C)c3ccccc3)o2)cc1 | 3.3 |
| O=C(CCCC(=O)NCCc1ccccc1)NCCc1ccccc1 | -7.91 |
| COc1ccc(CCN(C)CC(=O)Nc2c(C)cc(C)cc2C)cc1OC.Cl | 4.26 |
| O=Cc1ccc(-c2cccc(C(=O)O)c2)o1 | 16.1 |
| COc1ccc(S(=O)(=O)Nc2ccccn2)cc1 | 13.8 |
| O=C(c1ccccc1)c1nc2ccccc2n(CCCn2c(=O)c(C(=O)c3ccccc3)nc3ccccc32)c1=O | -16.1 |
